Results from publication PMC4336329 (PLoS ONE, 2015).
In all, about 310,000 compounds went through this assay and about 2,200 (0.71%) showed an effect of 50% or more. Effects have a minus sign here. Some of the results follow.

These compounds were tested against human ether-à-go-go-related gene (hERG) potassium channel (human, UniProt Q12809) (assay: primary screen, population patch clamp on CHO cells stably expressing hERG).
Chain of human ether-à-go-go-related gene (hERG) potassium channel (Q12809 whole entry, looked up): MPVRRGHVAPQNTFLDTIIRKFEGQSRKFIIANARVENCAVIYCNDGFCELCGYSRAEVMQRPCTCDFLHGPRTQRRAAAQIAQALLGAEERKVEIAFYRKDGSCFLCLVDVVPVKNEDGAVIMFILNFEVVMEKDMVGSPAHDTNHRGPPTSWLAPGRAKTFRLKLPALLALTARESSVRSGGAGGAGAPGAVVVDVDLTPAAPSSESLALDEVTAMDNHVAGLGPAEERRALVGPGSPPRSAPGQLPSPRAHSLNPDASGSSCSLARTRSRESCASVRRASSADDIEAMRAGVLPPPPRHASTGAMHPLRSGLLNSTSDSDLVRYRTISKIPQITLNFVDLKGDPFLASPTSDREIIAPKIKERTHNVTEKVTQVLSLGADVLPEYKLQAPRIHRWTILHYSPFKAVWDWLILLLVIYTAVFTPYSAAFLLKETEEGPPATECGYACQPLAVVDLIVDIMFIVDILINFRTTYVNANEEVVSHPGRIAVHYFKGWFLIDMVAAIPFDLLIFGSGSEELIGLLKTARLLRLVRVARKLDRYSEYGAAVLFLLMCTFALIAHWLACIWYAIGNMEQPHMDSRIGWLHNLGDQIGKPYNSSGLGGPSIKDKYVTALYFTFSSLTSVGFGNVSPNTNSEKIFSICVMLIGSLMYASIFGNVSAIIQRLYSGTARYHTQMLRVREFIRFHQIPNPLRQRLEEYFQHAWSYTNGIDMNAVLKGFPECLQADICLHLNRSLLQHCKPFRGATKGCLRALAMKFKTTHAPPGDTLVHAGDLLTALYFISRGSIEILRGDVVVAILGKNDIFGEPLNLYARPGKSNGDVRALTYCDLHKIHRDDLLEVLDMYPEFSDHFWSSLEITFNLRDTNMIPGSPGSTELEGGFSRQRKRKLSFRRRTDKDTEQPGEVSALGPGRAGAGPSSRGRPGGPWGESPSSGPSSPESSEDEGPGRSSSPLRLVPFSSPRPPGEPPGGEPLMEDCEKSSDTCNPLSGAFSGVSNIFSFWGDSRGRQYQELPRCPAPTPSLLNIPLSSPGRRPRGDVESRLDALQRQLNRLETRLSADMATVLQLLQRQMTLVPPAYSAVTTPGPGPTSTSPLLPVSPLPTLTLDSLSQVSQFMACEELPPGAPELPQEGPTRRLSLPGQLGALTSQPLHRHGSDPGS

Compound	hERG current change (%, negative = inhibition) at 1uM [%]
O=c1o[nH]c(-c2ccccc2)c1C=Nc1ccc(Cl)cc1	1.88
CCCCCn1c(NC(=O)c2ccco2)c(C(=O)OCC)c2nc3ccccc3nc21	-73.9
Cc1cn(C(=O)c2ccccc2)c(=S)n1-c1ccc(Cl)cc1	-0.802
COc1ccccc1CNC(=O)C1CC2Cn3c(nc4cc(Cl)c(Cl)cc43)C2N1C (stereo not drawn)	-24
COc1ccc(CCn2c(=S)[nH]c3cc(C(=O)N4CCOCC4)ccc3c2=O)cc1OC	8.02
Cc1ccc(NC(=O)c2cc(S(=O)(=O)N3CCCC3)c[nH]2)c(C)c1	-1.21
O=c1oc(-c2ccccc2)nc2sc3c(c12)CCCC3	18.5
CCC(C)[C@H](NC(=O)N1CC(=O)Nc2ccccc21)C(=O)N1CCC[C@@H]1C(=O)O (stereo partly drawn)	19.3
COC(=O)c1ccc(-c2ccc(/C=N/N3C(=O)C4C5C=CC(C6CC56)C4C3=O)o2)cc1 (stereo not drawn)	3.68
COCCNC(=O)c1ccc(CS(=O)(=O)c2cccc(C(F)(F)F)c2)o1	10.5
c1ccc(-c2nnc3ccc(N4CCC5(CC4)OCCO5)nn23)cc1	-14.2
N#CC1=C(N)C(C#N)(C#N)[C@H](c2ccncc2)[C@H]2CC3(CC=C12)OCCO3	7.56
O=C(NNC(=O)C1CC1c1ccccc1)Nc1ccccc1 (stereo not drawn)	5.96
O=C(c1ccco1)N1CCN(S(=O)(=O)c2ccc(F)cc2)CC1	3.68
Cc1ccc(-c2ccc(=O)n(CC(=O)Nc3cccc(C(=O)N4CCN(C)CC4)c3)n2)cc1	-3.61
COc1ccc(Br)cc1S(=O)(=O)n1ccnc1	14.9
Cc1cccc(NC(=S)N/N=C/c2c[nH]c3ccccc23)c1	12.3
NS(=O)(=O)c1cc(Cl)c(Cl)c(S(N)(=O)=O)c1	2.94
COc1ccc(N2CCN(CC(=O)Nc3ccc(SC(F)F)cc3)CC2)cc1	-35.8

Compound	hERG current change (%, negative = inhibition) at 1uM [%]
NC(=O)COC(=O)c1ccccc1Nc1ccc(SC(F)F)cc1	0.762
Nc1cccc(S(=O)(=O)NC2=NCCC2)c1	13.4
COc1ccc(OCc2cc(C(=O)N(C)Cc3cc(C)no3)no2)c(Cl)c1	27.2
O=C(Cc1ccc(Cl)cc1)Nc1ccccc1N1CCOCC1	7.35
COc1ccc2nc(NC(=O)CSc3cn[nH]n3)sc2c1	10.4
COc1ccc(-n2c(-c3ccccc3)nc(=S)c3c2CCCC3)cc1	3.27
Cc1nnc(SCC(=O)N2CCCCCC2)n(N)c1=O	14.5
CCCCN(CC)C(=O)C1CCC(CNS(=O)(=O)c2cccc3nsnc23)CC1 (stereo not drawn)	14.1
CC1Cc2cc(S(=O)(=O)N3CCCCC3)ccc2N1C(=O)C1CCC1 (stereo not drawn)	12
COCCN1C=C2C(=O)C(C)(OC(=O)CCc3ccccc3)C(=O)C=C2C=C1c1ccc(C#N)cc1 (stereo not drawn)	-23.7
COC(=O)c1cn(NC(=O)/C=C/c2cc(OC)ccc2OC)c(=O)c2ccccc12	8.24
O=C(c1cnc(N2CCN(c3ncccn3)CC2)c2ccccc12)N1CCN(c2ccccn2)CC1	0.591
CCCCn1c(=O)c(C(=O)NCc2ccco2)c(O)c2ccccc21	11.7
Cn1c(-c2cnn(-c3ccccc3)c2N)n[nH]c1=S	7.5
CCOC(=O)c1cc(CC)sc1NC(=O)CN1C(=O)C(=O)N(CC(C)C)C1=O	-0.515
COn1c(=O)c(-c2ccc(Cl)cc2)[n+]([O-])c2ccccc21	7.2
COc1ccc(C(=O)N(C)c2c(C)n(C)n(-c3ccccc3)c2=O)cc1OC	15.8
CCc1ccccc1N(CC(=O)NCc1ccco1)C(=O)CCC(=O)Nc1ccccn1	12.1
Cc1nc(C(C)NC(=O)CCc2nnc(CCCc3ccccc3)o2)c(C)s1 (stereo not drawn)	7.83

Compound	hERG current change (%, negative = inhibition) at 1uM [%]
COc1ccc(Oc2c(O)c3ccccc3n(C)c2=O)cc1	9.63
Cc1cc(NC(=O)C2CC(=O)N(c3ccccc3C)C2)no1 (stereo not drawn)	13.7
CCOC(=O)Cc1csc(NC(=O)CSC2=NCCS2)n1	16.1
CC(C(=O)O)N(c1ccccc1Cl)S(C)(=O)=O (stereo not drawn)	-6.64
O=C(Nc1ccccc1N1CCCCC1)c1cnccn1	7.8
Cn1c(=O)c2c(ncn2CC(=O)N2CCN(S(=O)(=O)c3ccc(F)cc3)CC2)n(C)c1=O	5.15
CCOC(=O)C1CCCN(C(=O)c2ccc3c(c2)N(Cc2ccccc2)C(=O)c2ccccc2S3=O)C1 (stereo not drawn)	8.55
CC12CNCC(C)(CNC1)C2O (stereo not drawn)	15.4
COC(=O)CNC(=O)COC(=O)c1cc(F)c(F)cc1Cl	11.1
CCOC(=O)c1ccc(N2C(=O)CC(Sc3nc(O)c(CC)c(=O)[nH]3)C2=O)cc1 (stereo not drawn)	16.2
CC(=O)c1cc(C#N)c(SCCC(C)C)nc1C	-1.21
COc1cccc(N2CC(C(=O)Nc3nnc(SCC(=O)NCc4ccco4)s3)CC2=O)c1 (stereo not drawn)	13.8
CCOc1cc(/C=N/N2C(=O)NC3(CCCCC3)C2=O)cc(Br)c1O	21.5
Cc1ccc(NC(=O)c2snc3ccc(Cl)cc23)cc1C	7.71
Cc1ccc(S(=O)(=O)NC2CC(C)(C)N(O)C(C)(C)C2)cc1.Cl	7.9
Nc1ccc(NC(=O)NC2CCCCC2)cc1	15.8
Cc1nc2cc(NC(=O)Nc3cccc(F)c3)ccc2n1C	8.54
COc1cc(OC)c(NC(=O)CC(=O)Nc2cc(Cl)c(OC)cc2OC)cc1Cl	15
COc1ccccc1COCC(O)CN1CCN(S(=O)(=O)c2cccc(F)c2)CC1 (stereo not drawn)	-3.07
